Measurements taken from article PMC5735038.
No constants are given. Whether binding was seen depends on the method and setting. For some assays here: In cells and extracts the contact can be indirect. Some results given as binding are weak or reduced against the parent protein; the word gives no strength. For some assays here: Where a sequence is shown, tags or fusion partners need not be part of it.

By UniProt entry, the sequences of proteins in these tests, tags left out.
UniProt Q9CQJ4: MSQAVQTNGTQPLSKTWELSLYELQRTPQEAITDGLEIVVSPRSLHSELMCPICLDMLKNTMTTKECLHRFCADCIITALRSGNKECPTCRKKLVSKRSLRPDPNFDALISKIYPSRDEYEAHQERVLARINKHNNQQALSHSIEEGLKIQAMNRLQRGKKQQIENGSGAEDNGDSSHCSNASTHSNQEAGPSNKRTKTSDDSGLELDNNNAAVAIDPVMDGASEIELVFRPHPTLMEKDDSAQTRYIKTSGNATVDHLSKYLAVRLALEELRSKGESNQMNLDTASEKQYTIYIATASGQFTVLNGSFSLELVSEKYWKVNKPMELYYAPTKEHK
UniProt Q61188: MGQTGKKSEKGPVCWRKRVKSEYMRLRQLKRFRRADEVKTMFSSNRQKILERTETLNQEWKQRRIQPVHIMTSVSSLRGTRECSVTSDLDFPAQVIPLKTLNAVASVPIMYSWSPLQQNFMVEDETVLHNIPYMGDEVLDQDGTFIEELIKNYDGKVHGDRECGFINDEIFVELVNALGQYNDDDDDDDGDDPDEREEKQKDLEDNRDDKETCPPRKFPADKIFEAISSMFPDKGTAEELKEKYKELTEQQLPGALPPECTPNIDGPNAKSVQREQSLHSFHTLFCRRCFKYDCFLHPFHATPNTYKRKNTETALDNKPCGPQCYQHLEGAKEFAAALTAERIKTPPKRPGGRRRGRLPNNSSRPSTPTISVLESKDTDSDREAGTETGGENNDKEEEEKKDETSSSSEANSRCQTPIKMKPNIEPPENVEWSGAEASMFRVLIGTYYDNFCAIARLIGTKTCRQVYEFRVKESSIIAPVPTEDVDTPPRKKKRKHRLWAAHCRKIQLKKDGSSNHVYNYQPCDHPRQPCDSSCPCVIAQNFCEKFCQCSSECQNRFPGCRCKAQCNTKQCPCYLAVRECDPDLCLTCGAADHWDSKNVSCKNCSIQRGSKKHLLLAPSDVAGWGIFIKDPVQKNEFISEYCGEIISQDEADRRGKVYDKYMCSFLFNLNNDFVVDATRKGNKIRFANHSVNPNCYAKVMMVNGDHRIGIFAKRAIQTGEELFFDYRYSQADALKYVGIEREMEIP
UniProt Q3UK78: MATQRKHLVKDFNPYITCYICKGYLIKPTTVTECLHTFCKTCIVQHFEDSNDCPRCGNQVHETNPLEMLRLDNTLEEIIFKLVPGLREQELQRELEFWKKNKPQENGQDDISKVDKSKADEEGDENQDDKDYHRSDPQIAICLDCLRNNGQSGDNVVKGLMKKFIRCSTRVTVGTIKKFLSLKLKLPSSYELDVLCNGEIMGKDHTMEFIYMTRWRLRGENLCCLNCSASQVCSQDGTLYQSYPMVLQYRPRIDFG

T1: PCGF3 C-term His/Flag (UniProt Q8BTQ0)
T1 sequence: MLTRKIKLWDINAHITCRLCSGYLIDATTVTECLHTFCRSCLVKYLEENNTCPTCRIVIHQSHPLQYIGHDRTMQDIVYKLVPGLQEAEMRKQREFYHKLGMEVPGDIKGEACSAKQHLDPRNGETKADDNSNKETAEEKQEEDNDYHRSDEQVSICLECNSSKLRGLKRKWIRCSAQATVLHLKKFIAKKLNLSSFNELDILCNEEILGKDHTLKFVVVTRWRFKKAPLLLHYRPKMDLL


Key:
[1] = target: eGFP-hnRNPK (mouse (129S1 cDNA)) (UniProt P61979); experiment: co-IP; GFP nanobodies on Dynabeads; 500 ug nuclear extract of mESCs stably expressing eGFP-hnRNPK, 150 mM NaCl, treated with Benzonase, 4°C overnight; washes with 150 mM and 450 mM NaCl; western blot
GST-hnRNPK (mouse) = GST-hnRNPK (mouse) (UniProt P61979); experiment: pull-down; 30 ug each of PRC1 complex and GST-hnRNPK mixed overnight at 4°C, then Glutathione Sepharose beads 2 hr at 4°C; 20 mM HEPES, 300 mM NaCl, 5% glycerol, 0.1% Triton X-100, 250 mM sucrose, 2 mM β-mercaptoethanol; elution with 10 mM reduced glutathione; western blot; both purified
PCGF3 C-term His/Flag = target: T1, PCGF3 C-term His/Flag; experiment: co-purification (nickel affinity chromatography and gel filtration); subunits co-expressed in E. coli ArcticExpress DE3 from psT44, one subunit His-tagged; Ni Sepharose (500 mM NaCl), then Superdex 200 Increase (20 mM HEPES pH7.5, 5% glycerol, 300 mM NaCl)
RING1B C-term His/Strep = RING1B C-term His/Strep (UniProt Q9CQJ4); experiment: as above

binding [1] | binding (GST-hnRNPK (mouse)) | binding (RING1B C-term His/Strep) | Molecule | further results
no binding |  |  | EED (from UniProt Q921E6 1-441) | 
 | no binding |  | PCGF6-PRC1 (RING1B C-term His/Strep, RYBP, PCGF6) (from UniProt Q9CQJ4 1-336; Q8CCI5 1-228; Q99NA9 1-353) (complex) | 
no binding |  |  | EZH2 (from UniProt Q61188 1-746) | 
 | binds |  | PCGF3-PRC1 (RING1B, RYBP, PCGF3 C-term His/Flag) (from UniProt Q9CQJ4 1-336; Q8CCI5 1-228; Q8BTQ0 1-241) (complex) | 
binds |  |  | PCGF5 (from UniProt Q3UK78 1-256) | 
 |  |  | RING1B (recombinant, subunit of PRC1.3) (from UniProt Q9CQJ4 1-336) | binding (PCGF3 C-term His/Flag): binds
 | no binding |  | PCGF2-PRC1 (RING1B C-term His/Strep, RYBP, PCGF2) (from UniProt Q9CQJ4 1-336; Q8CCI5 1-228; P23798 1-342) (complex) | 
 |  | binds | PCGF6 (recombinant) (protein, UniProt Q99NA9 1-353) MDEAETDATENKRASEAKRASAMPPPPPPPPPISPPALIPAPAAGEEGPASLGQAGAAGCSRSRPPALEPERSLGRLRGRFEDYDEELEEEEEMEEEEEEEEEMSHFSLRLESGRADSEDEEERLINLVELTPYILCSICKGYLIDATTITECLHTFCKSCIVRHFYYSNRCPKCNIVVHQTQPLYNIRLDRQLQDIVYKLVINLEEREKKQMHDFYKERGLEVPKPAAPQPVPSSKGKTKKVLESVFRIPPELDMSLLLEFIGANEDTGHFKPLEKKFVRVSGEATIGHVEKFLRRKMGLDPACQVDIICGDHLLERYQTLREIRRAIGDTAMQDGLLVLHYGLVVSPLKIT | 
 |  | binds | PCGF2 (recombinant) (protein, UniProt P23798 1-342) MHRTTRIKITELNPHLMCALCGGYFIDATTIVECLHSFCKTCIVRYLETNKYCPMCDVQVHKTRPLLSIRSDKTLQDIVYKLVPGLFKDEMKRRRDFYAAYPLTEVPNGSNEDRGEVLEQEKGALGDDEIVSLSIEFYEGVRDREEKKNLTENGDGDKEKTGVRFLRCPAAMTVMHLAKFLRNKMDVPSKYKVEILYEDEPLKEYYTLMDIAYIYPWRRNGPLPLKYRVQPACKRLTLPTVPTPSEGTNTSGASECESVSDKAPSPATLPATSSSLPSPATPSHGSPSSHGPPATHPTSPTPPSTAAGTTTATNGGTSNCLQTPSSTSRGRKMTVNGAPCPP | 
 |  | binds | RYBP (recombinant) (protein, UniProt Q8CCI5 1-228) MTMGDKKSPTRPKRQAKPAADEGFWDCSVCTFRNSAEAFKCSICDVRKGTSTRKPRINSQLVAQQVAQQYATPPPPKKEKKEKVEKPDKEKPEKDKDISPSVTKKNTNKKTKPKSDILKDPPSEANSIQSANATTKTSETNHTSRPRLKNVDRSTAQQLAVTVGNVTVIITDFKEKTRSSSTSSSTVTSSAGSEQQNQSSSGSESTDKGSSRSSTPKGDMSAVNDESF | binding (PCGF3 C-term His/Flag): binds
